The source of these data is PMC12136788.

The other results are listed elsewhere or left out.

To fix the notation:
B1: 10437954_10438074_480_CDS_ENSMUSG00000027534_ENSMUST00000029047|mouse|control|control (ssRNA)
RNA: GGGAGUUCUACAGUCCGACGAUCAAAUUUAGUCCUAAUGAGAGGACUACCACACAUUGAUGAUGCACUGUCCAUCUGAUCCUGGACAUUCGUCUGCUUAAGACUGCCCACAGCUGAGUCCUCUAACUGGCCUUUGGAAGAGGUCAACAGAGGAUUGAGCAUCA
B2: chr16:46708560:46708561:-_ENSG00000069329_ENST00000568784|perfect_dup|motif|central (ssRNA)
RNA: GGGAGUUCUACAGUCCGACGAUCCAAAAAGUUUAAUAUCCGCUGGGAUUCCAGGUCCAUCUUCACGGUGAGCAAAUAAAGCGGAUCGGUCAAUUAAAGCAAUGAUUAUGUUCUUCACAUUUACAUUCUGGUGUAACUCAGCACCAACAGAGGAUUGAGCAUCA
B3: 25101351_25104063_597_CDS_ENSMUSG00000001833_ENSMUST00000165594|mouse|control|control (ssRNA)
RNA: GGGAGUUCUACAGUCCGACGAUCCUUAACCAGUUUAUUCUCUUCUUCAUCAUCUGUUUCUGGAAAUUCAUAUAUUUUAAUUUUAUGUUCUUGAAUUUCUUUCAUUAUCUGCUUUUUAAACUGUUGGCAUUCCUCUGGUGUAAGCAACAGAGGAUUGAGCAUCA
B4: chr3:19126325:19126326:-_ENSMUSG00000069094_ENSMUST00000091314|mus_hu|FALSE|FALSE (ssRNA)
RNA: GGGAGUUCUACAGUCCGACGAUCGCUUACUAUACAUAAAACAAUUUAAAACAAAUUACAAAAGUGGAAUGUUUGAAGUUUAAAAUUAGUCCUUAUAGUUUGUCCUAGAAAACAUCUGUUCACAUCAAAAGGCCCGUCAAAGGGCAACAGAGGAUUGAGCAUCA
B5: 33171585_33171705_3458_CDS_ENSMUSG00000054280_ENSMUST00000120129|mouse|control|control (ssRNA)
RNA: GGGAGUUCUACAGUCCGACGAUCUUCCCGAGAAGACAGACAAGAGUGCACCAUCUUGACAGAGUCUUGGCACCCAGGAGACACUGAGUCUUUUAAGGAUAAUCCAAAGGUUUUCCUCUUGCCAAACUCAGAAUUUGCUUCAAGCAACAGAGGAUUGAGCAUCA
B6: chr11:2905015:2905016:-_ENSG00000129757_ENST00000380725|hu_mus|motif|central (ssRNA)
RNA: GGGAGUUCUACAGUCCGACGAUCAGUUUUCAGAUUUCCACAAAACCGUGGGCUGCUCUACGCAACCAUCUCCGGUUCCUGCGGCAUGAACGAAAGGUCCCAGCCGAAGCCCAGAGUUCUUCCAUCGUCCGCUGCCCAGAUGCCCAACAGAGGAUUGAGCAUCA
B7: 202626020_202626140_1009_CDS_ENSG00000003393_ENST00000264276|human|control|control (ssRNA)
RNA: GGGAGUUCUACAGUCCGACGAUCGCAUCGUUCUGGGACUGGCUUCAGAUCCUGGGAAGGGAGGCAUUGUACAAGGGCUAAGCUGUGGAAAGCACCACAGGCAACUUGAAGCACCACUCGCCCAGCAAGAUGUUCUACCUUUUGCAACAGAGGAUUGAGCAUCA
B8: chr6:36759976:36759977:-_ENSMUSG00000029838_ENSMUST00000101534|mus_mus|FALSE|FALSE (ssRNA)
RNA: GGGAGUUCUACAGUCCGACGAUCAGCUGGCUGCCUUUGUUGCAAAGUGCGGGCGAGGUUUCUGCAGACUCCAGGUAUCGCUGGCUGAUGCUCCUGCCUGGGCGGCUGCGCUCUGCUCUCCCCCCUUCUGGAUGGAUGACUCAGCAACAGAGGAUUGAGCAUCA
B9: chr2:47387792:47387793:-_ENSG00000143933_ENST00000272298|hu_hu|hu_hu_hu_mus_True|1_18 (ssRNA)
RNA: GGGAGUUCUACAGUCCGACGAUCUAAGGACAAUGACAGUAAGAUAAGGGAAGAAAACAUGGAGGAAUGAAGUCCUAAUUACUAUACAUGCAUAUUUUUUGACAGUAGGGGGGGGGACUUUUACAGAGAUAAGUUACACAAAGACAACAGAGGAUUGAGCAUCA
B10: chr5:21408736:21408737:-_ENSMUSG00000042453_ENSMUST00000161356|mus_hu|mus_mus_mus_hu_False|78_78 (ssRNA)
RNA: GGGAGUUCUACAGUCCGACGAUCGUUGACAGAGUUGUAGAUGGUGGCUUCAUGGAACUGGAACGGGGAGCAGCCAAUGCUGUUAGAAGAGGAAGGAAGGCACUGGGUCUGUACGAGCUGCCAGGAAUCCGAUCUUGCAUCCUUCAACAGAGGAUUGAGCAUCA
B11: chr1:163117127:163117128:-_ENSG00000143248_ENST00000313961|hu_mus|hu_hu_hu_mus_False|78_108 (ssRNA)
RNA: GGGAGUUCUACAGUCCGACGAUCUGCGGGUUAUUAUGUAACUCAACUCACAGGGCAUGAUUUCAUAGCCUGACCAGAUGACUACUUGAUUAGCUCCUUAUAAAAUUCAGAGCGCACAAAGCGGGGCAGAGAAUCCUUCUCCAUCAACAGAGGAUUGAGCAUCA
B12: chr16:92112057:92112058:+_ENSMUSG00000039680_ENSMUST00000047429|mus_hu|FALSE|FALSE (ssRNA)
RNA: GGGAGUUCUACAGUCCGACGAUCCCCUUCACAUUCUUUUAGUUCCUGGGUCAGAGGGUGUUUGACAAUAUUCCCUCUAAUCACAUCUAUAUCUCGAGACAAGUGCUCCACCAUGCUUUCAACAGCUGCGGUGGGUGCAUAAAACAACAGAGGAUUGAGCAUCA
B13: chr1:39494447:39494448:+_ENSG00000168653_ENST00000372967|hu_mus|hu_hu_hu_mus_False|1_8 (ssRNA)
RNA: GGGAGUUCUACAGUCCGACGAUCGCACCGAGCGGCGUUCUUAUAGGGCUGUUCUGCGCUUAGGAACAUAAAGUGCCGGUCCAGGCUGAUGCCCAGCUUUUUCUGUAUGUCAAGGAAAGGCAUGGCUGAUGCUCGUGCCCUUGACAACAGAGGAUUGAGCAUCA
B14: 600660_613778_369_CDS_ENSG00000141252_ENST00000437048|human|control|control (ssRNA)
RNA: GGGAGUUCUACAGUCCGACGAUCCCGUCCAUCCUGCCCCACGUUCGUCUGACCUCUUACAACAGUUCGAAUAUUGUCAUCCAGUCUCCUUAUUUUCAGCCUAAUUUUGUUCACGACUUCGUCUAUGUUCGCCAGAGAUUGCUCCAACAGAGGAUUGAGCAUCA
B15: chr9:59476459:59476460:+_ENSMUSG00000025237_ENSMUST00000026267|mus_hu|FALSE|FALSE (ssRNA)
RNA: GGGAGUUCUACAGUCCGACGAUCUUUCAGCAUGGAGUCCUGUAUGAUAGGGAAACUGGGAGACUUGGGGAUGGGUGAAAAGAUGCUGAGGCCAGCUCGGAACUUCUUGAUGGUACCACUUGCCUUGAACCAACUGUGCCUCUUCAACAGAGGAUUGAGCAUCA
B16: chr17:35975015:35975016:-_ENSMUSG00000001525_ENSMUST00000001566|mus_mus|FALSE|FALSE (ssRNA)
RNA: GGGAGUUCUACAGUCCGACGAUCGCCACACUGUCCGGCCUGGAUGUGCACGAUUUCCCUCAUGGCUACGGUUUACUGAAAUAAUUGUUUUUGAUGGUUCCAAUGUAGGUACCGAACAAGAAAGAAAAUUAAGGUUUUUGGGGUCAACAGAGGAUUGAGCAUCA
B17: 13601314_13601434_7285_CDS_ENSG00000038219_ENST00000040738|human|control|control (ssRNA)
RNA: GGGAGUUCUACAGUCCGACGAUCGCUCACUGCCAACACGGGACCCGGUUCUUUGCCUCCCCUGACUGGCCCAGGACACCGACAGUUAUUCUCAGCAAUUAGGCUGGGCAUGGGGACCUUGUGCUUGCUCACUUCUGUGGCUGACAACAGAGGAUUGAGCAUCA
B18: chr11:100882373:100882374:+_ENSMUSG00000019302_ENSMUST00000044721|mus_mus|mus_mus_mus_hu_True|1_1 (ssRNA)
RNA: GGGAGUUCUACAGUCCGACGAUCUUCCUGGUUUGUGUUGAUUUCCUUCAGUUCAUUUUCAAUCUUCUCAAAAUUGGCCUCUAAGUCAAUCAUGUCCCGGGGGAAGGGAACCUCUGGGUUUUCACCGGUGUCCAUAAUUGGGAUCAACAGAGGAUUGAGCAUCA
B19: chr17:45761549:45761550:+_ENSG00000108424_ENST00000290158|hu_mus|FALSE|FALSE (ssRNA)
RNA: GGGAGUUCUACAGUCCGACGAUCGCUCAGGCAGGGAGGGGAUGAAAGGAGCACGGGAGAAACCUAAGCCAAUACCUUUGACUACAAUGGAAAUGGAAAUGGGAAUGAGGGUCUUGUGUUUCUUCCACACUACCAGGAAGCAAUCAACAGAGGAUUGAGCAUCA
B20: chr4:116827845:116827846:-_ENSMUSG00000047675_ENSMUST00000140226|mus_mus|FALSE|FALSE (ssRNA)
RNA: GGGAGUUCUACAGUCCGACGAUCACAAGUCCUUGCAUUGGCAAGUGGUGUACAGGUGGCCAAGACGGCCAUAACCACGCCUAAGGAUACGUUUUCAUCACCCUAGUUACCUCCAGAAAAAGCCAGACCCCCCCUAACACAGGACAACAGAGGAUUGAGCAUCA
B21: chr2:232320318:232320319:-_ENSG00000115053_ENST00000322723|hu_hu|hu_hu_hu_mus_True|38_108 (ssRNA)
RNA: GGGAGUUCUACAGUCCGACGAUCACUGUUGAAGUCUACAAAACCAAACCCUUUGGAAGAACCAGUUUCCCGAUCAGUGACUAUUCUUGCACGAACAGAGCCGUCAAAUGAUUCUUUUAAGGUCUCUUCAGUGGUAUCCUCAGACAACAGAGGAUUGAGCAUCA
B22: chr16:94690093:94690094:+_ENSMUSG00000040785_ENSMUST00000117648|mus_hu|mus_mus_mus_hu_True|18_108 (ssRNA)
RNA: GGGAGUUCUACAGUCCGACGAUCGGGGACUCCUGUGGGACACACAGCCUCGAUUCCAGGGGGAAAAAGUCUUAGUCGAUACUAAUUAAAAAGUGUUAAUGAUUUUUGAAAAUCAGAUGUAGAUUAAAAAAGAUGAAAAGCAAACAACAGAGGAUUGAGCAUCA

In this assay the target is T1, UNK ZnF1-3 (human, UniProt Q9C0B0 31-174).
T1 sequence: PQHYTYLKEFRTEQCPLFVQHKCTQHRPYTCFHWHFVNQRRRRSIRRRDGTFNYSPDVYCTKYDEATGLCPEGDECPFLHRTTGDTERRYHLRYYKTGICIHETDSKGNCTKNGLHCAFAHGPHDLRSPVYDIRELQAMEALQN
Put plainly: nsRBNS (natural sequence RNA bind-n-seq); RBNS binding buffer (assumed for nsRBNS): 25 mM Tris pH 7.5, 150 mM KCl, 3 mM MgCl2, 0.01% Triton X-100, 500 ug/ml BSA, 20 U/ml SUPERase-In, 4 C; UNK is unkempt and MSI1 is Musashi-1; names of the RNAs are library labels; protein concentration not given here; high values mean tight binding.
As to B1, the binding signal came to 0.684 enrichment R.

For the molecule B2, the binding signal worked out at 1.34 enrichment R.

Consider B3, for which the binding signal is 0.344 enrichment R.

The molecule B4 yielded a binding signal of 2.24 enrichment R.

B5: the binding signal amounted to 1.16 enrichment R.

Consider B6, for which the binding signal was found to be 0.659 enrichment R.

Turning to B7, the binding signal was 1.79 enrichment R.

B8 showed a binding signal of 1.13 enrichment R.

For the molecule B9, the binding signal amounted to 2.28 enrichment R.

B10 showed a binding signal of 1.64 enrichment R.

With B11, the binding signal turned out to be 0.829 enrichment R.

On to B12, for which the binding signal worked out at 0.546 enrichment R.

B13 gave a binding signal of 0.719 enrichment R.

B14 gave a binding signal of 0.758 enrichment R.

B15 showed a binding signal of 1.19 enrichment R.

For the molecule B16, the binding signal amounted to 1.46 enrichment R.

Consider B17, for which the binding signal was determined as 1.02 enrichment R.

In the case of B18, the binding signal amounted to 0.641 enrichment R.

Molecule B19 registered a binding signal of 1.47 enrichment R.

As to B20, the binding signal is 0.979 enrichment R.

Regarding B21, the binding signal stood at 0.676 enrichment R.

Molecule B22 yielded a binding signal of 2.26 enrichment R.
